This note sets out measurements from the BET-seq Pho4 binding data (Le et al. 2018).

The other results are listed elsewhere or left out. These are noisy estimates, calculated here from bound and input reads.

The assay has as its target T1, Pho4 (S. cerevisiae) (UniProt P07270).
T1 sequence: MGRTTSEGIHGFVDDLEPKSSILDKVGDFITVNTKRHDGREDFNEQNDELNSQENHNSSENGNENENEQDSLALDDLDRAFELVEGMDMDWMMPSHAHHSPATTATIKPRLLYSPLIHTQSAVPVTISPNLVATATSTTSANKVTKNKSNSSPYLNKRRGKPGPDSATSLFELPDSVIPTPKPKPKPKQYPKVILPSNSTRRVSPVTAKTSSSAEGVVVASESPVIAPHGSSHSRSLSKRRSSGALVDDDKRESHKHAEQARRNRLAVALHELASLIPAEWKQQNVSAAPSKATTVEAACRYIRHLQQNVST
The experiment in a line: relative binding free energy (BET-seq); higher = weaker binding. Conditions: reference: library average.
Consider TTCGCCACGTGTTTGT, for which the “relative binding free energy” value was -0.01 kcal/mol. Turning to TTTGGCACGTGTTGCT, the “relative binding free energy” value is -0.13 kcal/mol. For AGACGCACGTGGTGTA, the “relative binding free energy” value was -0.13 kcal/mol. For the sequence GGCGGCACGTGTAAGG, the “relative binding free energy” value worked out at 0.07 kcal/mol. As to TTTCGCACGTGTAGTG, the “relative binding free energy” value was determined as 0.05 kcal/mol. Regarding TAGTTCACGTGATTCG, the “relative binding free energy” value turned out to be 0.27 kcal/mol.

Turning to TTATACACGTGTGAGT, the “relative binding free energy” value is -0.03 kcal/mol. TAATGCACGTGGTGCT: the “relative binding free energy” value is -0.15 kcal/mol. For the sequence AGTCTCACGTGAGGGA, the “relative binding free energy” value worked out at 0.33 kcal/mol. Consider ATGTCCACGTGATTTT, for which the “relative binding free energy” value is 0.2 kcal/mol. Turning to GTCGTCACGTGCGGTG, the “relative binding free energy” value amounted to 0.1 kcal/mol. Next, TTTTGCACGTGGCGAA: -0.1 kcal/mol; GGAGTCACGTGTCAAG: 0.16 kcal/mol; CCTTGCACGTGGGTTG: -0.16 kcal/mol.

On to AGATCCACGTGTGTTT, for which the “relative binding free energy” value came to 0.05 kcal/mol. Consider CGTAACACGTGGAGTG, for which the “relative binding free energy” value is -0.15 kcal/mol.

Regarding GTTCGCACGTGATGGT, the “relative binding free energy” value came to 0.11 kcal/mol. On to ATGTGCACGTGCATTT, for which the “relative binding free energy” value turned out to be 0.05 kcal/mol. Take GTGGGCACGTGTTGAA: the “relative binding free energy” value was found to be 0.04 kcal/mol. On to ATAGTCACGTGGGTGA, for which the “relative binding free energy” value is -0.15 kcal/mol. In the case of AAGTTCACGTGATGTC it was 0.3 kcal/mol; in that of TGTATCACGTGCGAGA, 0.15 kcal/mol. Next, CTATGCACGTGGTTTA: -0.14 kcal/mol.

For CTGCTCACGTGGTGGG, the “relative binding free energy” value was found to be 0.2 kcal/mol. As to GTTGGCACGTGGTGTC, the “relative binding free energy” value is -0.06 kcal/mol. For the sequence ATTGTCACGTGCGAAT, the “relative binding free energy” value came out at 0.08 kcal/mol. Next, CGTTTCACGTGTGGAT: 0.22 kcal/mol; TAACACACGTGGGGTG: -0.21 kcal/mol. Turning to GTCGTCACGTGTGGTC, the “relative binding free energy” value is 0.08 kcal/mol. For TATTTCACGTGTGTGG, the “relative binding free energy” value worked out at 0.36 kcal/mol. Take GATATCACGTGGTGTA: the “relative binding free energy” value is 0.05 kcal/mol. On to GGGGACACGTGGACTT, for which the “relative binding free energy” value was 0.04 kcal/mol. Consider GTGGGCACGTGGCCGT, for which the “relative binding free energy” value is -0.25 kcal/mol. Turning to TGTATCACGTGGCTGC, the “relative binding free energy” value worked out at 0.13 kcal/mol. In the case of AGGGGCACGTGGACAT it was -0.1 kcal/mol. Next, CGTGGCACGTGGTGGG: -0.13 kcal/mol. Next, TGGGACACGTGGAATA: 0.18 kcal/mol; TGCTTCACGTGGTTCT: 0.18 kcal/mol; GGAAGCACGTGGCTTG: -0.08 kcal/mol. As for CTTTTCACGTGGTTAG, the “relative binding free energy” value was 0.21 kcal/mol.

Consider TGATCCACGTGGTTGT, for which the “relative binding free energy” value is -0.09 kcal/mol. In the case of TGGGGCACGTGGGCCC it was -0.26 kcal/mol; in that of ATTGTCACGTGGTTAC, -0.05 kcal/mol.

Take CATCTCACGTGTTGGG: the “relative binding free energy” value is 0.21 kcal/mol.

On to TGGCACACGTGTCAGG, for which the “relative binding free energy” value stood at 0.12 kcal/mol.

As to TGAATCACGTGTGAAG, the “relative binding free energy” value was 0.23 kcal/mol. For TGCGGCACGTGGGTGC, the “relative binding free energy” value was -0.38 kcal/mol. In the case of AGGCGCACGTGTAGTT it was -0.07 kcal/mol; in that of GTGGCCACGTGTGAGT, 0.03 kcal/mol; in that of GGGGGCACGTGGTATT, -0.06 kcal/mol.

For GGAGTCACGTGCGTGA, the “relative binding free energy” value is 0.03 kcal/mol. Consider CTGGTCACGTGCCGGG, for which the “relative binding free energy” value was found to be 0.11 kcal/mol. With TTGTACACGTGTGGTG, the “relative binding free energy” value came out at 0.04 kcal/mol. Next, TTCCTCACGTGTGTTT: 0.31 kcal/mol; TGTGCCACGTGGTATA: -0.2 kcal/mol; TCAGTCACGTGGAGGG: 0.16 kcal/mol.

As for TGGTGCACGTGAAGCT, the “relative binding free energy” value worked out at 0.17 kcal/mol.

For TTACTCACGTGTTGGA, the “relative binding free energy” value came to 0.32 kcal/mol. Regarding GGCTGCACGTGCGGTA, the “relative binding free energy” value was 0.09 kcal/mol. On to GCTAGCACGTGGCGTG, for which the “relative binding free energy” value was -0.06 kcal/mol. AGTTTCACGTGAGGGC: the “relative binding free energy” value came out at 0.35 kcal/mol.

On to TTTTCCACGTGTGTTT, for which the “relative binding free energy” value amounted to 0.2 kcal/mol. In the case of TAGGGCACGTGATTGA it was -0.09 kcal/mol; in that of ACGGTCACGTGGTGAG, 0.1 kcal/mol. On to GAGGGCACGTGGTTGC, for which the “relative binding free energy” value is -0.11 kcal/mol. In the case of CAGGGCACGTGGGTAA it was -0.18 kcal/mol; in that of AGGTACACGTGGTGGG, 0 kcal/mol. As to TTGTTCACGTGGACAT, the “relative binding free energy” value was found to be 0.04 kcal/mol. With TGTTTCACGTGGGAGA, the “relative binding free energy” value is 0.17 kcal/mol. In the case of AGTTTCACGTGATAGG it was 0.33 kcal/mol; in that of TAGGTCACGTGGGGCT, -0.08 kcal/mol; in that of TATAGCACGTGACAGG, 0.09 kcal/mol. Turning to TATTTCACGTGCTCTG, the “relative binding free energy” value was 0.19 kcal/mol. Next, CGGGTCACGTGTTATT: 0.17 kcal/mol; CGCTGCACGTGTGTTT: 0.03 kcal/mol; TTTCCCACGTGGGTGT: -0.28 kcal/mol. With TTATTCACGTGAAATT, the “relative binding free energy” value was 0.38 kcal/mol. As to CTATTCACGTGTTAGT, the “relative binding free energy” value was 0.21 kcal/mol. Regarding GTCTGCACGTGAATTG, the “relative binding free energy” value is 0.33 kcal/mol. For the sequence CGGTACACGTGGGTGA, the “relative binding free energy” value was -0.16 kcal/mol. Take GGGATCACGTGTTCTG: the “relative binding free energy” value is 0.16 kcal/mol.

For TTATGCACGTGGACCG, the “relative binding free energy” value stood at 0.05 kcal/mol. Next, AATTACACGTGTTTAT: 0.08 kcal/mol. For the sequence AGGGTCACGTGATGAG, the “relative binding free energy” value worked out at 0.19 kcal/mol. As for TGTTTCACGTGGGCCA, the “relative binding free energy” value was found to be 0.03 kcal/mol. For TGCTGCACGTGGTCTG, the “relative binding free energy” value was -0.12 kcal/mol. As for TGTGCCACGTGTGTGT, the “relative binding free energy” value came out at 0.04 kcal/mol. On to CGAGTCACGTGCGGGG, for which the “relative binding free energy” value was -0.05 kcal/mol. As for TCGGTCACGTGCATTT, the “relative binding free energy” value is 0.19 kcal/mol. ATACGCACGTGCAGGG: the “relative binding free energy” value was found to be 0 kcal/mol. As to TGGCGCACGTGTTGAA, the “relative binding free energy” value turned out to be 0.1 kcal/mol. Turning to TAGAGCACGTGTAATT, the “relative binding free energy” value is 0.16 kcal/mol.

As to AGAGCCACGTGGGGGC, the “relative binding free energy” value was -0.28 kcal/mol.

Take GGTAACACGTGCTGTG: the “relative binding free energy” value is -0.17 kcal/mol. As for CGATTCACGTGATTGG, the “relative binding free energy” value was determined as 0.34 kcal/mol. In the case of TCTTTCACGTGGTTGA it was 0.21 kcal/mol. With CTAGGCACGTGATTGT, the “relative binding free energy” value was -0.05 kcal/mol. For the sequence GAGTGCACGTGTATTT, the “relative binding free energy” value was 0.06 kcal/mol. For the sequence AGATGCACGTGTATTG, the “relative binding free energy” value was -0.05 kcal/mol.

Regarding CGATGCACGTGTAGTG, the “relative binding free energy” value is -0.05 kcal/mol. Turning to TATGCCACGTGGCAGG, the “relative binding free energy” value is -0.14 kcal/mol. Consider ATGGTCACGTGACGTG, for which the “relative binding free energy” value stood at 0.32 kcal/mol.

As to AGGGTCACGTGGTCAG, the “relative binding free energy” value was 0.12 kcal/mol. In the case of AGGCGCACGTGTTGGG, the “relative binding free energy” value is -0.1 kcal/mol. Take AGATTCACGTGAGTAG: the “relative binding free energy” value was 0.37 kcal/mol. Regarding AGAAGCACGTGTGTGG, the “relative binding free energy” value is -0.12 kcal/mol. As to GTTTTCACGTGAATAG, the “relative binding free energy” value came out at 0.43 kcal/mol. Next, ATAAGCACGTGGATTG: -0.04 kcal/mol. For TGAAGCACGTGCGAGG, the “relative binding free energy” value is -0.12 kcal/mol. Next, TGCATCACGTGCGGGG: 0.01 kcal/mol; TGTACCACGTGTTGGG: -0.08 kcal/mol.

For GAAGGCACGTGAGGTA, the “relative binding free energy” value came to 0.07 kcal/mol. For the sequence GTGTTCACGTGAATAG, the “relative binding free energy” value was determined as 0.48 kcal/mol.

Turning to TAGAGCACGTGATTAG, the “relative binding free energy” value is -0.05 kcal/mol. Consider CAAATCACGTGGGGGG, for which the “relative binding free energy” value turned out to be 0.07 kcal/mol. On to AGTCTCACGTGTAGTA, for which the “relative binding free energy” value was 0.19 kcal/mol. TGTGCCACGTGTAGGG: the “relative binding free energy” value is -0.03 kcal/mol. For the sequence GTGATCACGTGGTGTC, the “relative binding free energy” value is -0.01 kcal/mol. In the case of AAGAGCACGTGAAGTT it was 0.23 kcal/mol; in that of GGGGGCACGTGATCTA, -0.05 kcal/mol; in that of GGGTACACGTGGGACG, -0.04 kcal/mol. For the sequence GATTTCACGTGATGAG, the “relative binding free energy” value was found to be 0.35 kcal/mol. Next, GTTGACACGTGTTATC: 0.18 kcal/mol; ATTAACACGTGTTATT: 0.06 kcal/mol. For the sequence TAGTTCACGTGCTTGT, the “relative binding free energy” value came to 0.2 kcal/mol. Turning to TGCTGCACGTGGCGGT, the “relative binding free energy” value was -0.24 kcal/mol. In the case of CATTGCACGTGTTAGG, the “relative binding free energy” value was -0.14 kcal/mol.

As for AGGGGCACGTGATATG, the “relative binding free energy” value is 0.03 kcal/mol. Regarding ACGTTCACGTGTGGAT, the “relative binding free energy” value amounted to 0.16 kcal/mol. Take TGATTCACGTGGCGAA: the “relative binding free energy” value was determined as 0.29 kcal/mol. In the case of TGGGTCACGTGTTTTG, the “relative binding free energy” value is 0.16 kcal/mol. With TTTTCCACGTGATTGT, the “relative binding free energy” value is 0.03 kcal/mol. Next, GTGTTCACGTGGAATG: 0.3 kcal/mol; CGGACCACGTGGTGGT: -0.15 kcal/mol. In the case of AGTATCACGTGAGGTT it was 0.38 kcal/mol. Turning to GAGTGCACGTGGGCAT, the “relative binding free energy” value is -0.1 kcal/mol. On to GGAGACACGTGAGTAG, for which the “relative binding free energy” value was 0.28 kcal/mol. Take GCATGCACGTGGAGGT: the “relative binding free energy” value is 0.15 kcal/mol. Take GGGCACACGTGTAAGT: the “relative binding free energy” value was 0.05 kcal/mol. Next, GGCGACACGTGTAGGG: 0.07 kcal/mol; ATGGTCACGTGGATTT: 0.2 kcal/mol.

Regarding GAAGTCACGTGGGTAA, the “relative binding free energy” value was -0.02 kcal/mol. In the case of GTAAACACGTGTGGAG, the “relative binding free energy” value was determined as 0.02 kcal/mol. With TCGTGCACGTGTTGCT, the “relative binding free energy” value was -0.02 kcal/mol. With TGTTGCACGTGTCCGT, the “relative binding free energy” value is -0.22 kcal/mol. With AATGTCACGTGGGGCA, the “relative binding free energy” value is -0.18 kcal/mol.
